PubChem BioAssay AID504832 (National Center for Advancing Translational Sciences (NCATS), 2011)
The whole screen tested about 310,000 compounds, of which about 18,000 (5.8%) were called active. This list was built around the results that the source calls inconclusive (neither active nor inactive); the mix of calls is not that of the screen. The call rests on the fitted dose curve; in most records, active means well fitted inhibition curve with a large enough effect; inconclusive means small, poorly fitted or top-dose-only effect, or another doubt; inactive means no such curve, though single readings can be large or run the other way. No potency is given beside an inconclusive call; the fits are too rough.

Test: Primary qHTS for delayed death inhibitors of the malarial parasite plastid, 48 hour incubation
Settings: P. falciparum luciferase growth in erythrocytes; series mostly up to 28.7 µM; activity change, negative = inhibition: at the top concentration
In short: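 Luminescence readout; reporter = integrated firefly luciferase in P. falciparum. RBC culture at 2% hematocrit, 0.1% parasitemia final, 37 C/5% CO2; decreased signal taken as growth inhibition.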
On the % scale 0 is the no-effect control and ±100 the full control effect; potency means the concentration at half of the fitted maximal effect; tags describe the fitted curve by direction and shape.

SMILES | activity change, negative = inhibition | Potency
O=C(CNS(=O)(=O)c1ccc(Br)s1)N1CCC(N2CCCCC2)CC1 | inactive: 17.7% | 
CCCCN(C(=O)c1ccc2ccccc2c1)c1c(N)n(CCCC)c(=O)[nH]c1=O |  | inconclusive [inhibitor, single point]
CCN(CC)S(=O)(=O)c1ccc(N/N=C/c2ccc(OC)c(OC)c2OC)nc1 |  | inconclusive [inhibitor, full curve]
O=c1oc2ccccc2c(O)c1C(c1ccccn1)c1c(O)c2ccccc2oc1=O |  | inconclusive [inhibitor, partial curve, poor fit]
C/C(=N\NC(=O)c1cccc(C)c1)c1ccc(N2CCOCC2)cc1 | inactive: 33.6% | 
CCCCNC(=S)N/N=C1\CCCCc2ccccc21 |  | inconclusive [inhibitor, single point]
CCc1noc(C)c1C(=O)NNC(=O)c1cc(OC)c(OC)c(OC)c1 |  | inconclusive [inhibitor, single point]
Cc1nn(C)cc1/C=N/NC(=O)Cn1nnc(N)n1 | inactive: 12.7% | 
CCc1[nH]nc(C(=O)N2CCCC(C(=O)c3cccc(OC(C)C)c3)C2)c1C (configuration not stated) |  | inconclusive [inhibitor, single point]
COc1ccc(C2SCC(=O)N2c2nc3ccccc3s2)cc1 (configuration not stated) | inactive: 35.2% | 
C#CC[N+]1(CC#Cc2ccccc2)CCCC1 |  | active: 3.29 µM
Cc1nnc2ccc(-c3cccc(NC(=O)Cc4cccs4)c3)nn12 |  | inconclusive [inhibitor, partial curve, poor fit]
Cc1cc2oc(=O)cc(CN3CCCCC3C)c2cc1C (configuration not stated) |  | active: 10.4 µM
COc1ccccc1N1CCN(C2CCCN(C(=O)CN3CCCC3=O)C2)CC1 (configuration not stated) | inactive: 1.3% | 
COc1ccc([C@H]2CC(=O)C=C(c3ccc4c(c3)sc3ccccc34)C2)cc1 |  | inconclusive [inhibitor, single point]
COc1cccc(C(=O)/C=C/c2ccc(N3CCCCC3)c([N+](=O)[O-])c2)c1 |  | inconclusive [inhibitor, single point]
CC(C)(C)NC(=O)NC(=O)COC(=O)CCCc1c[nH]c2ccccc12 |  | inconclusive [inhibitor, single point]
CCCCCn1c(SCc2ccncc2)nc2cc(C(=O)NCc3ccco3)ccc2c1=O |  | inconclusive [inhibitor, full curve, poor fit]
CCOC(=O)c1cn(Cc2ccccc2)nn1 | inactive: 25.1% | 
NC(=O)CC(NC(=O)Cc1cccc2ccccc12)c1ccc(N2CCN(c3ccc(F)cc3)CC2)c([N+](=O)[O-])c1 (configuration not stated) |  | inconclusive [inhibitor, partial curve]
CS(=O)CCC(NS(=O)(=O)c1ccccc1)C(=O)O (configuration not stated) |  | inconclusive [inhibitor, single point]
COc1cc(CN(C)CC2CCCN(CCc3ccccc3F)C2)cc(Cl)c1OC (configuration not stated) |  | active: 13.1 µM
COC(=O)C1=C(Nc2ccc(C)cc2)C=C(C)C(C(=O)OC)C1c1ccc(F)cc1 (configuration not stated) |  | active: 3.7 µM
CC(NC1c2ccccc2-c2ccccc21)c1ccccc1 (configuration not stated) |  | inconclusive [inhibitor, partial curve]

SMILES | activity change, negative = inhibition | Potency
COc1cc(/C=N/NC(=O)C2CCN(CC(O)COCc3ccccc3)CC2)cc(OC)c1OC (configuration not stated) |  | inconclusive [inhibitor, partial curve, poor fit]
CC(C(=O)NCc1ccc(F)cc1)n1ccc2cc(S(=O)(=O)N3CCCC3)ccc21 (configuration not stated) |  | inconclusive [inhibitor, partial curve]
O=[N+]([O-])c1ccc(-c2nc(NCC3CCCO3)c3ccccc3n2)cc1 (configuration not stated) |  | inconclusive [inhibitor, single point]
COC(=O)C1(C)Nc2ccccc2C(=O)N1c1ccccc1OC (configuration not stated) | inactive: 12.4% | 
COCCn1c(NC(=S)NC(=O)C23CC4CC(CC(C4)C2)C3)cc(=O)[nH]c1=O |  | inconclusive [inhibitor, partial curve]
C#CCOCCOCCOCCNc1nc(N2CCN(C(=O)CCCCCCCCCCNC(=O)[C@@H](CCC(=O)O)n3cc(CCCCCN)nn3)CC2)nc(N2CCN(C(=O)CCCCCCCCCCNC(=O)[C@H]([C@@H](C)CC)n3cc(CCCCCN)nn3)CC2)n1 |  | active: 2.08 µM
COc1ccc(-c2[nH]ncc2CN(CCO)CC23CC4CC(CC(C4)C2)C3)c(OC)c1 |  | inconclusive [inhibitor, single point]
Cc1ccc(CNC(=O)/C(C#N)=C/c2ccc(C)s2)cc1 | inactive: 37.1% | 
CSc1ncccc1C(=O)OCC(=O)Nc1ccc(S(=O)(=O)N2CCCC2)cc1 | inactive: 10.3% | 
COc1ccccc1N1CCN(C(=O)/C=C/c2ccccc2)CC1 |  | inconclusive [inhibitor, single point]
CCN1CC2=C(OC(N)=C(C#N)C2c2ccccc2)/C(=C\c2ccccc2)C1 (configuration not stated) |  | active: 10.4 µM
O=C(CN1C(=O)COc2ccccc21)NCC1CCCO1 (configuration not stated) | inactive: 22.8% | 
O=C(Nc1ccc(Cl)cc1C(F)(F)F)c1ccccc1 | inactive: 22.9% | 
Cc1ccc(C(OCC(O)CN2CCCCC2)c2ccccc2)cc1 (configuration not stated) |  | inconclusive [inhibitor, partial curve]
CC(=O)c1ccc(NC(=O)C(C)Sc2ccccn2)cc1 (configuration not stated) | inactive: 68.6% | 
CC(=O)c1ccc(NC(=O)CSc2nnc(NC(=O)CN3CCOCC3)s2)cc1 | inactive: 16.8% | 
CCOc1c(Cl)cc(CNC(C)C(O)c2ccccc2)cc1OC (configuration not stated) |  | active: 1.47 µM
COCCn1c(SCc2cc(C(C)=O)ccc2OC)nc2cc(Cl)ccc2c1=O |  | inconclusive [inhibitor, single point]
CCN(C(=O)COC(=O)c1cc([N+](=O)[O-])ccc1N1CCOCC1)c1ccccc1 |  | inconclusive [inhibitor, single point]
c1ccc(Cn2cc(CN3CCCCO3)c(-c3ccc4c(c3)OCO4)n2)cc1 |  | inconclusive [inhibitor, partial curve, poor fit]
CN(C)c1ncc(S(=O)(=O)c2ccccc2)c(-c2ccccc2Cl)n1 |  | inconclusive [inhibitor, partial curve, poor fit]
O=C(OCc1ccccc1C(F)(F)F)c1cc([N+](=O)[O-])ccc1N1CCOCC1 |  | inconclusive [inhibitor, single point]
O=C(CCCN1C(=O)/C(=C\c2ccccc2)SC1=S)Nc1cccc(C(=O)O)c1 |  | inconclusive [inhibitor, single point]
COC(=O)c1cnn2c(C)c(Cc3cccc(F)c3)c(C)nc12 |  | inconclusive [inhibitor, partial curve]

SMILES | activity change, negative = inhibition | Potency
CCOc1ccc(NC(=O)[C@H](Cc2ccccc2)NC(=O)C2CCNCC2)cc1 | inactive: -3.48% | 
COc1ccc(-c2nc(CS(=O)CC(=O)NC3CCCCC3)c(C)o2)cc1OC (configuration not stated) |  | inconclusive [inhibitor, single point]
CC(N)Cc1ccccc1Sc1ccc(O)cc1 (configuration not stated) |  | inconclusive [inhibitor, single point]
Clc1ccc(-c2csc(-c3cccnc3)n2)s1 |  | inconclusive [inhibitor, single point]
CCOC(=O)c1ccc(NC(=O)CCc2ccc(C)o2)cc1 |  | inconclusive [inhibitor, single point]
CCN1CCN(CC(=O)Nc2ccc(Cl)c(S(=O)(=O)N(C)C)c2)CC1 | inactive: -2.3% | 
CCn1ccnc1CNCc1cn(-c2cc(C)ccc2C)nc1-c1ccccc1 |  | inconclusive [inhibitor, partial curve, poor fit]
Cc1ccccc1NC(=O)Nc1ccccc1N1CCCCC1 |  | inconclusive [inhibitor, partial curve, poor fit]
Cc1ccc2c(c1C)OC(=O)CC2c1ccccc1 (configuration not stated) | inactive: 2.98% | 
C=CC1CN2CCC1CC2c1[nH]c2ccccc2c1CCO (configuration not stated) | inactive: -6.84% | 
NC1CCc2cc(O)c(O)cc2C1 (configuration not stated) |  | inconclusive [inhibitor, single point]
N#C/C(=C\c1cccnc1)C(=O)Nc1ccccc1 | inactive: 30.4% | 
CC1CC(C)CN(C(=O)C(Cc2ccccc2)NC(=O)c2ccccc2)C1 (configuration not stated) |  | inconclusive [inhibitor, single point]
Cc1cccc(CC(=O)NC2CCN(C)CC2)c1 | inactive: 6.79% | 
COc1ccc(C(=O)NCc2nnc(SCC(=O)N3CCc4ccccc43)n2C2CCCCC2)cc1 |  | inconclusive [inhibitor, full curve, poor fit]
Cc1ccc(-n2c(-c3ccccc3)nnc2-c2cccs2)cc1 | inactive: 1.75% | 
CN(C)/C=N/c1sc2c(c1C#N)CCCCC2 | inactive: 94.8% | 
CCCc1c(O)nc(SCCN(CCC)CCC)[nH]c1=O |  | inconclusive [inhibitor, partial curve, poor fit]
COc1ccc(C(=O)Nc2c(N)nc(SCC(=O)NCC3CCCO3)[nH]c2=O)cc1 (configuration not stated) | inactive: 39.3% | 
CCc1nn(CC(=O)NCCCN2CCN(CC)CC2)c(=O)c2cc3occc3n12 | inactive: 12.9% | 
COc1ccc(-n2nc(C(=O)NCC(=O)N3CCCCCC3)c3ccccc3c2=O)cc1Cl |  | inconclusive [inhibitor, single point]
CN(C)S(=O)(=O)c1ccc(N2CCCC2)c(C(=O)Nc2ccc(F)cc2F)c1 |  | inconclusive [inhibitor, single point]
CN(C)[C@@H](Cc1ccccc1)c1ccccc1 | inactive: -0.359% | 
CC(NC(=O)c1ccc2c(c1)OCO2)C1CCCO1 (configuration not stated) | inactive: 19.4% | 
